Measured values from PubChem BioAssay AID2006 (Sanford-Burnham Center for Chemical Genomics, 2009).
Screen size: about 290,000 compounds; about 1,000 (0.34%) were called active. The inconclusive results got no clear call from the source; some entries with a clear call stand among them for comparison. Cut-off read from the data, not from the text of the source: active = inhibition above about 50% (passing the limit was not always enough); inconclusive = no clear call, values can overlap the other calls.

target: SUMO-conjugating enzyme UBC9 (Homo sapiens) (UniProt P63279); test: blockers of SAE1/SAE2–UBC9 SUMO transfer – biochemical, HTRF, uHTS, primary screen (AID 2006); settings: HTRF SUMOylation assay, SAE1/SAE2 + UBC9, in vitro; at 35 µM; hits give high values
UniProt P63279, sequence (P63279 whole entry, looked up): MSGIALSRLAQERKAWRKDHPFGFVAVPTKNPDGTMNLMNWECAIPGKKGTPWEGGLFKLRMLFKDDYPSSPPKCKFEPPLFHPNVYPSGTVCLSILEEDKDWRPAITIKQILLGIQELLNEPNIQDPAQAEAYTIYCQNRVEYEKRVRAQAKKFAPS

inhibition, inactive:
Cc1cc(N2CCN(c3ccccc3)CC2)n2nnnc2n1 11.4%
O=C(c1cc2ccccc2oc1=O)N(c1ccccc1)C1C=CS(=O)(=O)C1 (stereo unspecified) 6.9%
CC(N=C1CC(C)(C)CC(=O)/C1=C(/O)CCCN1C(=O)c2ccccc2C1=O)C(=O)O (stereo unspecified) 2.9%
O=C(CSc1nnc(-c2ccccc2)o1)c1nnc(-c2ccccc2)o1 18.6%
Cc1cc(C)nc(SCc2ccc(C(=O)N/N=C3\CCCC(=O)C3)cc2)n1 -1.4%
O=C(N/N=C/c1c(Cl)nc2ccccn2c1=O)c1cccnc1 21.4%
Cc1ccc(C)c(OCCCNC2CCCC2)c1C -23.4%
NC(=O)CSc1nc2scc(-c3ccc(Cl)cc3)c2c(=O)n1Cc1ccccc1 2.9%
Cc1ccc(C(=O)C[n+]2ccc(Cc3ccccc3)cc2)cc1 5.7%
Cc1cc(NC(=O)CSc2n[nH]c(N)n2)no1 -0.2%
COc1ccc(N2CCN(C(c3ccc4ncccc4c3)c3nnnn3C(C)C)CC2)cc1 (stereo unspecified) -5.6%
COc1ccccc1C(=O)Nc1ccnn1C1CCN(CCCc2ccccc2)CC1 12.7%
COc1ccc(NC(=O)CCCc2nnc3n(C)c(=O)c4sccc4n23)cc1 4.2%
COc1ccccc1CNc1ccc(N2CCCCC2)cc1 11.3%
Nc1nc2ccc(S(=O)(=O)N3CCCCC3)cc2s1 11.3%
Cc1cccc(NC(=O)CN2C(=O)/C(=C3\SC(=S)N(CC4CCCO4)C3=O)c3ccccc32)c1 (stereo unspecified) 12.4%
CN1CC(=O)N(CC(=O)Nc2ccc(SC(F)F)cc2)C1=O -6.4%
Cc1cc(C)c(S(=O)(=O)NC(CC(=O)O)c2cccc([N+](=O)[O-])c2)c(C)c1 (stereo unspecified) 11.7%
CCCCN(CCCC)C1=Nc2ccccc2N/C1=C(/C#N)C(=O)OCC 3.2%
COc1cc(C)ccc1OCCOCCOc1ccc(C)cc1[N+](=O)[O-] -8.2%
CC(C)c1onc(C(=O)N2CCN(c3ccc(F)cc3)CC2)c1[N+](=O)[O-] 12%
O=S(=O)(c1cccc2nsnc12)N1CCN(C/C=C/c2ccccc2)CC1 16.9%
CCCC(c1nnnn1CCOC)N1CCN(C(=O)c2ccco2)CC1 (stereo unspecified) 15.1%
Cc1cccc(NC(=O)c2ccc(-c3ccccc3[N+](=O)[O-])o2)c1 19.7%
Cc1ccc(-c2nn3c(C)nnc3c3ccccc23)cc1S(=O)(=O)NCCO 8%

inhibition, active:
CCC(NC(=O)Cc1c(C)c2c(cc(C)c3c(C)c(C)oc32)oc1=O)C(=O)O (stereo unspecified) 54.1%
O=C(N/N=C/c1cccc(F)c1)c1cc(-c2ccco2)nc2ccccc12 79.2%
CCOC(=O)N1CCN(C(=O)c2cccn3c(=O)c4cc(Br)ccc4nc23)CC1 51.2%
O=[N+]([O-])c1cc(S(=O)(=O)Nc2cccc(Cl)c2)ccc1N=Nc1c(O)[nH]c2ccccc12 67.7%
Cc1ccc(C(C[N+](=O)[O-])c2c(C)[nH]n(-c3ccccc3)c2=O)cc1 (stereo unspecified) 71.2%
O=C(CSc1nc2ccccc2n1CCc1ccccc1)c1ccc(O)c(O)c1 64.6%
CC(C)(C)N1C(=O)Cc2c1nc(N)c1c(N)nc(N3CCCCC3CO)c(C#N)c21 (stereo unspecified) 100%
COc1cc(C2C=C(c3cccs3)Nc3ncnn32)cc(OC)c1OC (stereo unspecified) 53.2%
Cc1ccc2nc3c(cc(C(=O)NCc4ccco4)c(=N)n3Cc3ccco3)c(=O)n2c1 73.6%
CCCCN1Cc2c(nc3cc(-c4ccco4)[nH]n3c2=O)C1=O 92.1%
CCN(CCC(=O)Nc1cc([N+](=O)[O-])ccc1OC)Cc1ccccc1 69.4%
CCC(=O)N1N=C(c2c(-c3ccccc3)c3cc(Cl)ccc3[nH]c2=O)CC1c1ccco1 (stereo unspecified) 54.1%
COc1ccc(-n2cccc2/C=C2\C(=N)N3N=C(c4ccco4)SC3=NC2=O)cc1 87.8%
N=C1/C(=C/c2ccc(-c3cccc(C(=O)O)c3)o2)C(=O)N=C2SC=C(c3ccccc3)N12 78%
Cc1c2cnn(CC(=O)Nc3c(F)c(F)cc(F)c3F)c(=O)c2c(C)n1Cc1ccccc1F 62%
O=C1NC(=S)S/C1=C\c1ccc(SCc2ccco2)o1 62.8%

inhibition, inconclusive:
Cc1cccc2cc(-c3nc4ccc(C(=O)O)cc4[nH]3)c(=O)oc12 66.9%
O=c1oc2c(O)c(O)cc3c(=O)oc4c(O)c(O)cc1c4c23 90.6%
O=C1OCC2OC(O)C(O)C(O)C2OC(=O)c2cc(O)c(O)c(O)c2-c2c(O)c(O)c3oc(=O)c4c(c(O)c(O)c5oc(=O)c2c3c54)-c2c1cc(O)c(O)c2O (stereo unspecified) 92.1%
Nc1nnc(-c2cc3ccccc3oc2=O)s1 58.5%
Oc1ccc(N=Cc2ccc(O)c(O)c2)cc1 71.5%
O=C(Nc1ccc(-c2nc3ccccc3s2)c(O)c1)C1=COCCO1 59.6%
CC(=O)Nc1ccc2c3c(cccc13)C(=O)N(c1ccccc1)C2=O 64.1%
COc1ccc2oc(=O)c(-c3nnc(N)s3)cc2c1 60.7%
Nc1ccc(-c2nc3ccc(N)cc3s2)cc1 67.1%
COc1cc(/C=C(/C#N)c2nc3ccccc3[nH]2)ccc1OCC(=O)Nc1ccccc1C 71.1%
O=C(CSc1nc(-c2ccccc2)nc2c1Cc1ccccc1O2)Nc1ccc(C(=O)O)cc1 106%
Oc1ccc(/C=N/NC(=S)Nc2cccnc2)c(O)c1O 81%
CCOC(=O)C1CCN(c2cc3c(cc2NC(=O)c2cc(OC)ccc2Br)n(C)c(=O)n3C)CC1 53.6%
c1ccn(-c2ccc(-c3ccn[nH]3)cc2)c1 67.8%
COc1cc(-c2nc3ccc(N4CCN(C)CC4)cc3[nH]2)cc(OC)c1OC 59.9%
CCc1ccc(S(=O)(=O)/N=C2\C=C(Nc3cccc(C(=O)O)c3)C(=O)c3ccccc32)cc1 83.2%
Cn1c(/C=C/c2ccc(Cl)cc2)nc2ccccc2c1=O 56.4%
Nc1ccc(-c2nc3ccc(N)cc3o2)cc1 58.3%
Cc1c(-c2cccc(NC(=O)c3ccco3)c2)nc2ncccn12 50.7%
COc1ccc(-c2ccnc3c(C#N)cnn23)cc1 52.2%
CN(C)/C=N/c1nc2nccc(-c3cccs3)n2n1 61.2%
Cc1c(CCC(=O)NCCCN2CCCC2=O)c(=O)oc2c(C)c(O)ccc12 69.2%
Cc1ccc(-c2cc(C(=O)NCCCn3ccnc3)c3ccccc3n2)s1 60.4%
Nc1c(C(=O)NC2CC2)sc2nc3c(c(-c4ccco4)c12)CC/C3=C/c1ccco1 98.9%
CN(CCC#N)c1ccc(/C=C(\C#N)c2ccccn2)cc1 62.8%
N#C/C(=C\C=C\c1ccccc1)c1nc(-c2ccc3c(c2)OCO3)cs1 51.6%
O=c1c(O)cccc2cc(O)c(O)c(O)c12 90%
Cc1ccc(C(=O)C2CCN(C(=S)NCC3CCCO3)CC2)cc1 (stereo unspecified) 75.2%
O=C(CCS(=O)(=O)c1ccccc1)Nc1ccc(-c2nc3ccccc3s2)c(O)c1 66.3%
COc1ccc(C2=NN(c3ccc(C(=O)O)cc3)C(c3ccc(OC)c(OC)c3)C2)cc1 (stereo unspecified) 67.6%
COc1cc(NC(=O)c2ccc(C)cc2C)ccc1NC(=O)c1cc2ccccc2o1 52.4%
Cc1ccc(-c2cnc(-c3ccncc3)o2)cc1 66.4%
COc1ccc(C=C2C(=O)c3ccccc3C2=O)cc1O 59.1%
CCN1C(=O)c2cccc3c(S(=O)(=O)NCc4cccnc4)ccc1c23 57.7%
COC(=O)c1ccc(/C=C/c2ccc3cccc(OC)c3n2)cc1 64.4%
COc1cc(/C=C(/C#N)c2nc3ccccc3[nH]2)ccc1OCC(=O)Nc1ccccc1C(C)C 64.2%
O=C(O)c1ccc2nc(-c3ccco3)c(-c3ccco3)nc2c1 85.7%
Nc1cccc(-c2nc3ccc(N)cc3s2)c1 65.1%
O=C(CSc1nc(-c2ccc(F)cc2)nc2c1Cc1ccccc1O2)Nc1ccc(C(=O)O)cc1 90.5%
CCOC(=O)CNS(=O)(=O)c1ccc2c3c(cccc13)C(=O)N2CC 61.5%
CCOC(=O)CNc1c(-c2ccc(F)cc2)nc2cnccn12 61.7%
Cn1c(=O)n(C)c2cc(/C=N/NC(=O)c3cc4cc(Br)ccc4o3)ccc21 62.8%
O=c1c2ccccc2oc2cc(NCCCn3ccnc3)ccc12 65.9%
Nc1ccc(-c2nc3cc(N)ccc3s2)cc1 61.1%
O=C1/C(=C/Nc2ccc3c(c2)OCO3)CCc2ccccc21 60.1%
